These results are taken from PMC4336329 (PLoS ONE, 2015).

Screen size: about 310,000 compounds; about 2,200 (0.71%) showed an effect of 50% or more. Effects have a minus sign here. Some of the results follow.

The target of the assay is human ether-à-go-go-related gene (hERG) potassium channel (human, UniProt Q12809). Description: primary screen, population patch clamp on CHO cells stably expressing hERG.
Sequence of human ether-à-go-go-related gene (hERG) potassium channel (Q12809 whole entry, looked up): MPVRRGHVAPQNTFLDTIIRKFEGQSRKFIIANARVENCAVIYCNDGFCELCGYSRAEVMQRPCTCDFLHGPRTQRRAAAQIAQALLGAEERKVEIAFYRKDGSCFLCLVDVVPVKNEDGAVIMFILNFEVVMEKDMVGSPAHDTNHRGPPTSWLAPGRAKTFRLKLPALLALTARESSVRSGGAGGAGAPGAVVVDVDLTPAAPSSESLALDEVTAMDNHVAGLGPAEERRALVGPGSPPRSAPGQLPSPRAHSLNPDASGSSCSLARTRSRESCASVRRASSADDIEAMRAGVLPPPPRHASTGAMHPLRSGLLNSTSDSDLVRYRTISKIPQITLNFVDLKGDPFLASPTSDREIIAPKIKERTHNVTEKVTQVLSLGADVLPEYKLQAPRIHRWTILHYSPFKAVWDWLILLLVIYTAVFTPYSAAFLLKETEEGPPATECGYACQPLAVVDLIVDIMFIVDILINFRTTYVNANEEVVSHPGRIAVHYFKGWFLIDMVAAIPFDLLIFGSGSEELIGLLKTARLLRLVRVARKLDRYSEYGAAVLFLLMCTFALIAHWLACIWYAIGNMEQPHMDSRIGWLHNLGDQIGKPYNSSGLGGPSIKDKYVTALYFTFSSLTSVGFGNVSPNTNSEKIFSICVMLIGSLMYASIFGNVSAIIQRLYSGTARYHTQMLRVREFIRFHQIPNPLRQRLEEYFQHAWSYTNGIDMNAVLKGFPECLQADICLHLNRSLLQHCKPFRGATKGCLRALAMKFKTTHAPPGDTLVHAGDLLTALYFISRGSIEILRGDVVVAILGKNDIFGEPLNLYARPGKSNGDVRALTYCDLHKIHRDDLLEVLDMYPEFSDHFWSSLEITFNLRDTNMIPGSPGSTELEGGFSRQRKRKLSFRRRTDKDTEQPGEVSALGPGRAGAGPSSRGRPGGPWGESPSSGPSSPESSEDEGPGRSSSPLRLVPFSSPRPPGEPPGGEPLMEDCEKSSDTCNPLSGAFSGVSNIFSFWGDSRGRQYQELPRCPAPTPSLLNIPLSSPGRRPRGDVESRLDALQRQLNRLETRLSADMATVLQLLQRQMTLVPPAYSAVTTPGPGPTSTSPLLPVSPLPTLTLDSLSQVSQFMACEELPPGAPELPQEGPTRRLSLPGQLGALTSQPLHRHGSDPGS
As to `O=[N+]([O-])c1ccc(N=NN(CCO)CCO)cc1`, the “hERG current change (%, negative = inhibition) at 1uM” value is recorded as -32.7%. As to `COc1ccc2oc(=O)c(C(=O)Nc3ccccc3O)cc2c1`, the “hERG current change (%, negative = inhibition) at 1uM” value is 12%. With `CCN(CC)CCCNC(=O)CNC(=O)c1nn(-c2ccc(OC)cc2)c(=O)c2ccccc12` the figure was 17.5%; with `O=C(/C=C/c1ccc(F)cc1)N1CCN(S(=O)(=O)/C=C/c2ccccc2)CC1`, 12.6%; with `COc1cc(NC(=O)Cc2c(C(=O)O)n(C)c3ccccc23)cc(OC)c1OC`, 25.2%. As for `CC(=O)NC(Cc1ccccc1)C(=O)NC1CCN(C(=O)NC2CCCCC2)CC1` (stereo not drawn), the figure is 5.85%. In the case of `COC(=O)C(Cc1ccccc1)NC(=O)CNC(=O)c1ccc(Br)o1` (stereo not drawn), the “hERG current change (%, negative = inhibition) at 1uM” value was 6.39%.

Turning to `COc1ccc(S(=O)(=O)NCc2ccc(C(=O)N(C)Cc3ccco3)cc2)cc1`, the “hERG current change (%, negative = inhibition) at 1uM” value turned out to be 1.13%. Turning to `Cc1cc(C)nc(SCCN(C)C)n1.O=C(O)CCC(=O)O`, the “hERG current change (%, negative = inhibition) at 1uM” value came to 11.6%. Take `CC(=O)Nc1ccc2c(c1)N(C(=O)CN(C)C)c1ccccc1CC2`: the “hERG current change (%, negative = inhibition) at 1uM” value amounted to 9.16%.

Take `COC(=O)Cc1ccc(OCc2ccc(Cl)nc2)cc1`: the “hERG current change (%, negative = inhibition) at 1uM” value was -1.27%. As for `Cn1cnnc1SCC(=O)NN(c1ccccc1)c1ccccc1`, the figure is 5.71%; as for `COc1cccc(C(c2nnnn2CS(=O)(=O)c2ccc(C)cc2)N2CCN(C)CC2)c1OC` (stereo not drawn), 5.25%. Take `Clc1cccc(CNCCc2ccc3c(c2)OCO3)c1.O=C(O)C(=O)O`: the “hERG current change (%, negative = inhibition) at 1uM” value is reported as 1.45%. With `CCCN=C1CC(C)(C)CC(=O)/C1=C(/O)CCCN1C(=O)c2ccccc2C1=O` the figure was 4.75%; with `O=C(Cn1c(CO)nc2ccccc21)NC1CCCCCC1`, 5.06%; with `Cc1nnsc1C(=O)N/N=C/c1ccc2ccccc2c1O`, 15.1%. As for `COc1ccc(NS(=O)(=O)c2cc3c(cc2C)N(C(C)=O)CCO3)cc1OC`, the figure is 10.3%.

`Cc1ccc(-c2cc(=O)c3cc(C)ccc3[nH]2)cc1`: the “hERG current change (%, negative = inhibition) at 1uM” value amounted to 11.8%. With `COc1ccc(C(CNC(=O)COc2ccc(F)cc2Cl)N2CCCCC2)cc1` (stereo not drawn), the “hERG current change (%, negative = inhibition) at 1uM” value came to 6.84%. As for `Cc1c(C(=O)NCCN(C)C)oc2ccc(S(=O)(=O)N3CCC4(CC3)OCCO4)cc12`, the figure is 11.6%; as for `O=c1[nH]c(=O)n(C2CCCCC2)c(O)c1C=Nc1ccc(N2CCOCC2)cc1`, -4.38%. As for `Nc1cc(S(=O)(=O)Nc2ccc(Br)cc2)ccc1Cl`, the figure is 3.07%. As for `C=CC[n+]1c(-c2ccc(OC)cc2)csc1NNC(=O)Nc1ccccc1.[Br-]`, the figure is 7.39%.
